Where a chain is given by its changes, count along the chain named. In names and notes the source's numbering stands. ± gives the standard deviation of the averaged measurements. Laboratory Escherichia coli strains with one amino-acid change in an essential protein, pooled on minimal glucose agar with carbenicillin or gentamicin at twice the control MIC (plus kanamycin and chloramphenicol for the plasmids), 48 h. Fold change of barcode share against drug-free plates; higher = less susceptible. Active = above 20 in both replicates (the paper's putatively resistant). '<' = one read or none on drug, '>' = one read or none on a drug-free plate. Shares are relative, so most strains fall below 1 when a few take over. Listed are strains with at least 15 reads on both drug-free plates, and hits; most hits rest on fewer reference reads. Replicate rank correlation about 0.5. Edits are read from barcodes.
B1: rnpA L105A (protein)
chain: MVKLAFPRELRLLTPSQFTFVFQQPQRAGTPQITILGRLNSLGHPRIGLTVAKKNVRRAHERNRIKRLTRESFRLRQHELPAMDFVVVAKKGVADLDNRALSEAAEKLWRRHCRLARGS
B2: rnpA L105W (protein)
chain: B1 chain with A105W
B3: rnpA L105Q (protein)
chain: B1 chain with A105Q
B4: rnpA L105D (protein)
chain: B1 chain with A105D
B5: rnpA V88A (protein)
chain: B1 chain with V88A, A105L
B6: accA I115W (protein)
chain: MSLNFLDFEQPIAELEAKIDSLTAVSRQDEKLDINIDEEVHRLREKSVELTRKIFADLGAWQIAQLARHPQRPYTLDYVRLAFDEFDELAGDRAYADDKAIVGGIARLDGRPVMWIGHQKGRETKEKIRRNFGMPAPEGYRKALRLMQMAERFKMPIITFIDTPGAYPGVGAEERGQSEAIARNLREMSRLGVPVVCTVIGEGGSGGALAIGVGDKVNMLQYSTYSVISPEGCASILWKSADKAPLAAEAMGIIAPRLKELKLIDSIIPEPLGGAHRNPEAMAASLKAQLLADLADLDVLSTEDLKNRRYQRLMSYGYA
B7: bioF L246A (protein)
chain: MSWQEKINAALDARRAADALRRRYPVAQGAGRWLVADDRQYLNFSSNDYLGLSHHPQIIRAWQQGAEQFGIGSGGSGHVSGYSVVHQALEEELAEWLGYSRALLFISGFAANQAVIAAMMAKEDRIAADRLSHASLLEAASLSPSQLRRFAHNDVTHLARLLASPCPGQQMVVTEGVFSMDGDSAPLAEIQQVTQQHNGWLMVDDAHGTGVIGEQGRGSCWLQKVKPELLVVTFGKGFGVSGAAVACSSTVADYLLQFARHLIYSTSMPPAQAQALRASLAVIRSDEGDARREKLAALITRFRAGVQDLPFTLADSCSAIQPLIVGDNSRALQLAEKLRQQGCWVTAIRPPTVPAGTARLRLTLTAAHEMQDIDRLLEVLHGNG
B8: bioF L246W (protein)
chain: B7 chain with A246W
B9: bioF L246Q (protein)
chain: B7 chain with A246Q

target: Escherichia coli (laboratory strain); assay: barcode share on antibiotic plates over drug-free plates; higher = less susceptible; details: antibiotic: carbenicillin; 2× MIC (3.1 µg/mL)
Protocol: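 A pool of E. coli strains, each edited to carry one amino-acid change in an essential protein, was grown for 48 h on minimal glucose agar with or without antibiotic; strain barcodes were sequenced; mean of two replicates.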

Protein | fold change of barcode share
B1 | 0.364 ± 0.11
B2 | 0.283 ± 0.11
B3 | 0.265 ± 0.0049
B4 | 0.348 ± 0.17
B5 | 0.386 ± 0.26
B6 | 0.3246 ± 0.0014
B7 | 0.398 ± 0.047
B8 | 0.401 ± 0.11
B9 | 0.38 ± 0.1

same assay, conditions: antibiotic: gentamicin; 2× MIC (MIC 0.45 µg/mL)

Protein | fold change of barcode share
B1 | 0.0422 ± 0.056
B2 | 0.0254 ± 0.013
B3 | 0.0305 ± 0.013
B4 | < 0.0146
B5 | < 0.013
B6 | 0.00816 ± 0.0052
B7 | 0.00983 ± 0.0014
B8 | 0.00873 ± 0.00094
B9 | 0.00621 ± 0.0034
